Further values from the same series stand in other lists.
How the values were obtained:
Assay in all cases: concentration in plasma after dosing
[1] = system: Rat; details: dosed: Methyleugenol, 150 mg/kg, oral, Female, F344
[2] = system: Rat; details: dosed: Methyleugenol, 75 mg/kg, oral, Male, F344/N
[3] = system: Rat; details: dosed: Methyleugenol, 75 mg/kg, oral, Male, F344
[4] = system: Rat; details: dosed: Methyleugenol, 75 mg/kg, oral, Female, F344/N
[5] = system: Rat; details: dosed: Methyleugenol, 150 mg/kg, oral, Male, F344
[6] = system: Rat; details: dosed: Methyleugenol, 75 mg/kg, oral, Female, F344/N; remark: listed apart in the source
[7] = system: Rat; details: dosed: Methyleugenol, 75 mg/kg, oral, Female, F344/N; remark: listed apart in the source
[8] = system: Rat; details: dosed: Methyleugenol, 150 mg/kg, oral, Female, F344/N
[9] = system: Rat; details: dosed: Methyleugenol, 75 mg/kg, oral, Male, F344; remark: listed apart in the source
[10] = system: Rat; details: dosed: Methyleugenol, 150 mg/kg, oral, Female, F344/N; remark: listed apart in the source
[11] = system: Rat; details: dosed: Methyleugenol, 75 mg/kg, oral, Female, F344/N; remark: listed apart in the source
[12] = system: Rat; details: dosed: Methyleugenol, 150 mg/kg, oral, Female, F344/N; remark: listed apart in the source
[13] = system: Rat; details: 0.25 h; dosed: Methyleugenol; 37 mg/kg; oral; Female; F344
[14] = system: Rat; details: dosed: Methyleugenol, 150 mg/kg, oral, Male, F344/N
[15] = system: Rat; details: dosed: Methyleugenol, 75 mg/kg, oral, Male, F344; remark: listed apart in the source
[16] = system: Rat; details: dosed: Methyleugenol, 75 mg/kg, oral, Male, F344/N; remark: listed apart in the source
[17] = system: Rat; details: dosed: Methyleugenol, 150 mg/kg, oral, Female, F344/N; remark: listed apart in the source
[18] = system: Rat; details: dosed: Methyleugenol, 150 mg/kg, oral, Female, F344/N; remark: listed apart in the source
[19] = system: Rat; details: dosed: Methyleugenol, 75 mg/kg, oral, Female, F344
[20] = system: Rat; details: dosed: Methyleugenol, 37 mg/kg, oral, Male, F344
[21] = system: Rat; details: dosed: Methyleugenol, 150 mg/kg, oral, Female, F344/N; remark: listed apart in the source
[22] = system: Rat; details: dosed: Methyleugenol, 150 mg/kg, oral, Female, F344/N; remark: listed apart in the source
[23] = system: Rat; details: dosed: Methyleugenol, 37 mg/kg, oral, Male, F344; remark: listed apart in the source
[24] = system: Rat; details: dosed: Methyleugenol, 75 mg/kg, oral, Female, F344/N; remark: listed apart in the source
[25] = system: Rat; details: dosed: Methyleugenol, 75 mg/kg, oral, Female, F344; remark: listed apart in the source
[26] = system: Rat; details: dosed: Methyleugenol, 75 mg/kg, oral, Male, F344/N; remark: listed apart in the source
[27] = system: Rat; details: 1 h; dosed: Methyleugenol; 37 mg/kg; oral; Female; F344
[28] = system: Rat; details: dosed: Methyleugenol, 150 mg/kg, oral, Male, F344; remark: listed apart in the source
[29] = system: Rat; details: dosed: Methyleugenol, 75 mg/kg, oral, Male, F344/N; remark: listed apart in the source
[30] = system: Rat; details: dosed: Methyleugenol, 150 mg/kg, oral, Female, F344; remark: listed apart in the source
[31] = system: Rat; details: dosed: Methyleugenol, 150 mg/kg, oral, Male, F344/N; remark: listed apart in the source
[32] = system: Rat; details: dosed: Methyleugenol, 150 mg/kg, oral, Male, F344/N; remark: listed apart in the source
[33] = system: Rat; details: dosed: Methyleugenol, 150 mg/kg, oral, Male, F344/N; remark: listed apart in the source
[34] = system: Rat; details: dosed: Methyleugenol, 150 mg/kg, oral, Female, F344; remark: listed apart in the source
[35] = system: Rat; details: dosed: Methyleugenol, 150 mg/kg, oral, Female, F344; remark: listed apart in the source
[36] = system: Rat; details: dosed: Methyleugenol, 150 mg/kg, oral, Male, F344; remark: listed apart in the source

In the case of C=CCc1ccc(OC)c(OC)c1 [Methyleugenol], the concentration in plasma ([1]; 0.5 h) is reported as 2080 ng/mL, the concentration in plasma ([1]; 1.5 h) is reported as 678 ng/mL and the concentration in plasma ([2]; 0.5 h) is reported as 481 ng/mL. It also gave a concentration in plasma ([2]; 12 h) of 8.27 ng/mL, a concentration in plasma ([3]; 1 h) of 1350 ng/mL and a concentration in plasma ([3]; 2 h) of 364 ng/mL. It also gave a concentration in plasma ([4]; 5 min) of 611 ng/mL, a concentration in plasma ([4]; 6 h) of 205 ng/mL and a concentration in plasma ([5]; 5 min) of 2400 ng/mL. For the same compound, the concentration in plasma ([5]; 6 h) was 659 ng/mL, the concentration in plasma ([6]; 1 h) was 311 ng/mL and the concentration in plasma ([6]; 3 h) was 127 ng/mL. For the same compound, the concentration in plasma ([7]; 20 min) was 202 ng/mL, the concentration in plasma ([7]; 8 h) was 36.1 ng/mL and the concentration in plasma ([8]; 1.5 h) was 879 ng/mL. For the same compound, the concentration in plasma ([8]; 5 h) was 238 ng/mL, the concentration in plasma ([9]; 0.5 h) was 1440 ng/mL and the concentration in plasma ([9]; 1.5 h) was 509 ng/mL. For the same compound, the concentration in plasma ([10]; 1 h) was 543 ng/mL, the concentration in plasma ([10]; 8 h) was 571 ng/mL and the concentration in plasma ([11]; 0.5 h) was 270 ng/mL. It also gave a concentration in plasma ([11]; 5 h) of 182 ng/mL, a concentration in plasma ([12]; 2 h) of 372 ng/mL and a concentration in plasma ([12]; 12 h) of 21.6 ng/mL. The concentration in plasma [13] was 687 ng/mL, the concentration in plasma ([14]; 5 min) was 424 ng/mL and the concentration in plasma ([14]; 6 h) was 704 ng/mL. The concentration in plasma ([15]; 5 min) was 1380 ng/mL, the concentration in plasma ([15]; 6 h) was 57 ng/mL and the concentration in plasma ([16]; 1 h) was 67.4 ng/mL. It also gave a concentration in plasma ([16]; 4 h) of 181 ng/mL, a concentration in plasma ([17]; 2 h) of 504 ng/mL and a concentration in plasma ([17]; 5 h) of 2110 ng/mL. It also gave a concentration in plasma ([18]; 0.25 h) of 1920 ng/mL, a concentration in plasma ([18]; 12 h) of 28.8 ng/mL and a concentration in plasma ([19]; 0.25 h) of 1160 ng/mL. For the same compound, the concentration in plasma ([19]; 4 h) was 157 ng/mL, the concentration in plasma ([20]; 0.5 h) was 252 ng/mL and the concentration in plasma ([20]; 1.5 h) was 104 ng/mL. It also gave a concentration in plasma ([21]; 10 min) of 2300 ng/mL, a concentration in plasma ([21]; 3 h) of 664 ng/mL and a concentration in plasma ([22]; 0.25 h) of 2080 ng/mL. It also gave a concentration in plasma ([22]; 6 h) of 510 ng/mL, a concentration in plasma ([23]; 0.5 h) of 325 ng/mL and a concentration in plasma ([23]; 1.5 h) of 160 ng/mL. For the same compound, the concentration in plasma ([24]; 2 min) was 285 ng/mL, the concentration in plasma ([24]; 3 h) was 242 ng/mL and the concentration in plasma ([25]; 1 h) was 959 ng/mL. The concentration in plasma ([25]; 2 h) was 191 ng/mL, the concentration in plasma ([26]; 10 min) was 747 ng/mL and the concentration in plasma ([26]; 3 h) was 116 ng/mL. For the same compound, the concentration in plasma [27] was 227 ng/mL, the concentration in plasma ([28]; 5 min) was 3350 ng/mL and the concentration in plasma ([28]; 6 h) was 755 ng/mL. The concentration in plasma ([29]; 5 min) was 4520 ng/mL, the concentration in plasma ([29]; 2 h) was 97.5 ng/mL and the concentration in plasma ([30]; 0.5 h) was 1850 ng/mL. The concentration in plasma ([30]; 1.5 h) was 488 ng/mL, the concentration in plasma ([31]; 10 min) was 1950 ng/mL and the concentration in plasma ([31]; 12 h) was 56.1 ng/mL. It also gave a concentration in plasma ([32]; 0.5 h) of 822 ng/mL, a concentration in plasma ([32]; 3 h) of 800 ng/mL and a concentration in plasma ([33]; 1 h) of 1520 ng/mL. The concentration in plasma ([33]; 3 h) was 597 ng/mL, the concentration in plasma ([34]; 1 h) was 1510 ng/mL and the concentration in plasma ([34]; 2 h) was 579 ng/mL. For the same compound, the concentration in plasma ([35]; 1 h) was 1640 ng/mL, the concentration in plasma ([35]; 2 h) was 501 ng/mL and the concentration in plasma ([36]; 1 h) was 2790 ng/mL. The concentration in plasma ([36]; 2 h) was 945 ng/mL.

Source: EPA's CvTdb concentration-time database
